From paper PMC12136788 come the findings set out here.

T1: UNK ZnF1-6 (called full-length) (human, UniProt Q9C0B0 30-357)
T1 sequence: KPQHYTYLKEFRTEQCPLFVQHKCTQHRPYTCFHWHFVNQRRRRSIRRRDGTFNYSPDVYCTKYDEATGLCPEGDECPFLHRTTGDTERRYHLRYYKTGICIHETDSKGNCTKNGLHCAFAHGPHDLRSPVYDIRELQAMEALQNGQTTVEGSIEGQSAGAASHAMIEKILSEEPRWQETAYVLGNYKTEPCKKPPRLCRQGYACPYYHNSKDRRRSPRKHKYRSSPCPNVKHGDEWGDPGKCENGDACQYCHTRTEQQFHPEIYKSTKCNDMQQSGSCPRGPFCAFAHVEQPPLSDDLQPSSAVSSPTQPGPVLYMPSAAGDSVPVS

B1: chr3:11557766:11557867:-|3pUTR|ENSG00000144560|msi1|total|mutant (ssRNA)
RNA: GGGAGUUCUACAGUCCGACGAUCCUGGACUGCAGACUCUACCAAUCACGGGCAUUUUAUCUUCUCUGAACACUGCAGUUUGUCCGACCCGAGCUGAGGUUGGAGGAUUCCACCGUGCUUUAAACGUGAUGCAUGUUUUAAUGGCAACAGAGGAUUGAGCAUCA
B2: chr3:66380370:66380471:-|CDS|ENSG00000144749|msi1|FALSE|unique (ssRNA)
RNA: GGGAGUUCUACAGUCCGACGAUCCGGUCAAGUGGGGGUCUGACAGGUUCGUUCUUUCCUUGUAGGGGAUUCUUCCUGGACUUUAGCAAGGUUGUAUCACCCGGACUCCACAGAGCUACAGCCUGCAUCUUCAUUAACUUCAGGCAACAGAGGAUUGAGCAUCA
B3: chr12:108645191:108645284:-|3pUTR|ENSG00000110880|msi1_unk|total|mutant (ssRNA)
RNA: GGGAGUUCUACAGUCCGACGAUCUCUUUUUUUUUUUUUUUUUUUAAGCCAUGACAUCCCAGAAGAGGACAGUGAAUUACUCCCCGGUCGGCUCUUACCGAGUGGCCACCGUGUUCUGUCAAAACACUUGCUUCCAUUUUCAGACAACAGAGGAUUGAGCAUCA
B4: chr3:51403142:51403395:-|CDS|ENSG00000145041|control|control|control (ssRNA)
RNA: GGGAGUUCUACAGUCCGACGAUCCGCAGGGGAAGAUGGGGACAAUGACUUCUCUCCCUCUGAUGAGGAGCUAGCAAACCUUCUAGAGGAGGGAGAGGACGGGGAGGAUGAAGACUCUGAUGCAGAUGAGGAGGUGGAACUGAUCAACAGAGGAUUGAGCAUCA
B5: chr15:69268886:69268987:+|CDS|ENSG00000138604|unk|total|mutant (ssRNA)
RNA: GGGAGUUCUACAGUCCGACGAUCGGAGUUAAAGCUGUGUUUAUGAAUAAACAUGACUGGUAUGAAGAAUAUCCAACCACACCCCGCUCUUUUGUUUUAAAUGGCUUUAUGUAUUCUUUAAUUGGGCUGUAUGACUUAAAAGAACAACAGAGGAUUGAGCAUCA
B6: chr11:43342853:43342954:+|3pUTR|ENSG00000166181|msi1|FALSE|unique (ssRNA)
RNA: GGGAGUUCUACAGUCCGACGAUCCUAGUUCUGCUGAUAAAGAUCAUCAGUUUUGAAAGGUUACUGAUUUUCCUCUUCCCUCUUAGUUUUUUACCCAAUAUAUGGAGAAGAGUAAUGGUCAAUCUUAACAUUUUGUUUUAAUUGCAACAGAGGAUUGAGCAUCA
B7: chr5:171410733:171410822:+|3pUTR|ENSG00000181163|msi1_unk|FALSE|overlapping (ssRNA)
RNA: GGGAGUUCUACAGUCCGACGAUCGUUUUUAAAGAUGGAACUCCACCCUUUGCUUGGUUUUAAGUAUGUAUGGAAUGUUAUGAUAGGACAUAGUAGUAGCGGUGGUCAGACAUGGAAAUGGUGGGGAGACAAAAAUAUACAUGUCAACAGAGGAUUGAGCAUCA
B8: chr11:2928445:2928542:-|3pUTR|ENSG00000181649|msi1_unk|FALSE|overlapping (ssRNA)
RNA: GGGAGUUCUACAGUCCGACGAUCAUUGGACUAUCUAAUAUCUAUGUAUUUAUUUCGCUGGUUCUUUGUAGUCACAUAUUUUAUAGUCUUAAUAUCUUGUUUUUGCAUCACUGUGCCCAUUGCAAAUAAAUCACUUGGCCAGUUCAACAGAGGAUUGAGCAUCA
B9: ENSG00000198589:be:win_8701|3pUTR|ENSG00000198589|bound_else_gene|NA|bound_elsewhere_windowed (ssRNA)
RNA: GGGAGUUCUACAGUCCGACGAUCUGUAGUCUUUGCUUGACUUUUUUGGGGGGGAUUAGCAAAGCAGAAAACUGGCUGCUGGGUUCUGUAGUUUUAAAAAAUCUAUAUUUUUAGUCAUAAUGAGAAGUCUAUUUUCACCAAUUACAACAGAGGAUUGAGCAUCA
B10: chr15:41696124:41696239:+|CDS|ENSG00000174197|unk|total|mutant (ssRNA)
RNA: GGGAGUUCUACAGUCCGACGAUCUGCCGCCUCACCGUCCGACCAGAACGGAAGCUUCAAUGUUGUUAUUAAAGAGGAACCUCCCGAUGAUUAUGACUACGAACUUGGUGAGUGCCCAGAAGGGGUCACUGUGAAACAGGAAGACAACAGAGGAUUGAGCAUCA
B11: chr3:57561443:57561544:+|3pUTR|ENSG00000174840|unk|FALSE|unique (ssRNA)
RNA: GGGAGUUCUACAGUCCGACGAUCGAAAUUUAAAUAUGAAGCCAAACUUUUUAAAAUUAGAAACUACAAAUGGUUAUACUGAUUAGUGUCUAGCCUAGAGUGGUAACCAUGCUUUACUAAUUCAGUUAUGAAAUACAUUAUUUACAACAGAGGAUUGAGCAUCA
B12: chr21:42918526:42919006:-|CDS|ENSG00000233056|control|control|control (ssRNA)
RNA: GGGAGUUCUACAGUCCGACGAUCAAUUGGACAAUGGGGAGUAAACACUCAGGUGCUUGAGGACAUAAAGAGAGAACAGAUUAUAGCCAAAGCCAAAGCCUCAAAACCAACAACUCCCCCUGAAAAUCGCCCGCGGCAUUUCCACAACAGAGGAUUGAGCAUCA
B13: chr12:109850944:109852737:-|three_prime_utr|ENSG00000139433|control|control|control (ssRNA)
RNA: GGGAGUUCUACAGUCCGACGAUCGCUCUCCAAGGGGCAGAAUGUUACGGAGGAGGAGUGCCUGGAGAAGAUCCGCCUCUUCCUAGUCAACUACACGGCGACCAUCGAUGUCAUCUACGAGAUGUACACCCAGAUGAACGCUGACAACAGAGGAUUGAGCAUCA
B14: chr16:88863332:88863755:-|three_prime_utr|ENSG00000205022|control|control|control (ssRNA)
RNA: GGGAGUUCUACAGUCCGACGAUCCAGAGGAGAGGGGUGUCCAGAGCAGCCACUGGCCCCCUCUUGGCGGGGGGAUGGCCCAGUAGGGCCUUGUAUGGUGGUCCAGACCCAAGGCCACAGCCACGAGUCACAGCCACGGCCCGGCAACAGAGGAUUGAGCAUCA
B15: chr1:154584646:154584747:-|3pUTR|ENSG00000160710|unk|FALSE|unique (ssRNA)
RNA: GGGAGUUCUACAGUCCGACGAUCAUGCUCCAGUGACAGAUGGAUUAGGGUGUGUCAUACUAGGGUGUGAGAGAGGUAGGUCGUAGCAUUCCUCAUCACAUGGUCAGGGGAUUUUUUUUUCUCCUUUUUUUUUCUUUUUAAGCCCAACAGAGGAUUGAGCAUCA
B16: chr6:83525322:83525423:+|3pUTR|ENSG00000146250|msi1|FALSE|unique (ssRNA)
RNA: GGGAGUUCUACAGUCCGACGAUCACAAUUACAAUGUGUAUUAUUUAAAAAUGGGAGAAAUAGUUUGUUCUAUGAAAUAAACCUAGUUUAGAAAUAGGGAAGCUGAGACAUUUUAAGAUCUCAAGUUUUUAUUUAACUAAUACUCAACAGAGGAUUGAGCAUCA
B17: chr19:10690846:10690947:+|3pUTR|ENSG00000129351|msi1|total|mutant (ssRNA)
RNA: GGGAGUUCUACAGUCCGACGAUCGAAAGAGGUGAAAGAACAAGUUGUGUGCCCGAAAACUUUUGAGGAAUUCUUAUUUGUGUCCGAGCAGAGGAGGUCCCAGAUACCAAGUGGCGCCUCCCAGGAAAGGCUGGGAGAAGAGGUCAACAGAGGAUUGAGCAUCA
B18: chr2:150470103:150470218:-|CDS|ENSG00000115963|unk|total|mutant (ssRNA)
RNA: GGGAGUUCUACAGUCCGACGAUCAUGGCCAAACAGAUUGGAGCAGCUACUUAUAUCGAAUGCUCAGCUUUACAGUCGGAAAACCGCGUCAGAGACAUUUUUCACGUUGCCACCUUGGCAUGUGUAAAUAAGACAAAUAAAAACCAACAGAGGAUUGAGCAUCA
B19: chr5:52955293:52955406:+|3pUTR|ENSG00000213949|unk|FALSE|unique (ssRNA)
RNA: GGGAGUUCUACAGUCCGACGAUCUACCAACCAGUGUGAGCUGACUUCAGCACACCACUGAGACAGAUUACACGAUAGACAGAUAGAUAGAUAGAUAGAUAGAUAGAUAGAUAGAUAGAUAGAUAGAUAUUGAUAGAGAACAUGCAACAGAGGAUUGAGCAUCA
B20: chr7:107202531:107202632:-|3pUTR|ENSG00000164597|msi1|total|mutant (ssRNA)
RNA: GGGAGUUCUACAGUCCGACGAUCUAUUCUGAGAACUCAUAAAUAAAAUUCAGCCAAGAUUAAUCAAUCAAUCAAUCAAUCAGCCGACGUCAGAGAUAAGCAACUUUUUUUUCCAUUUAUUUGAAAUAAUAUACAAGAAUACCGCAACAGAGGAUUGAGCAUCA
B21: chr19:43785873:43786072:-|three_prime_utr|ENSG00000159871|control|control|control (ssRNA)
RNA: GGGAGUUCUACAGUCCGACGAUCGAAAUGAAGAAAAAAGGAGAAAGGAGAAAAGCAUGCACUUGGAGACUAAGACCAGGAGAUAGAAACAGAGAAGCAAGACAAGGCGCAGUGGCUCACACUUGUAAUUCCAGCACCUUAGGACAACAGAGGAUUGAGCAUCA
B22: chr13:110149936:110150037:-|3pUTR|ENSG00000187498|msi1|FALSE|unique (ssRNA)
RNA: GGGAGUUCUACAGUCCGACGAUCUUCUUGUAUUAUAAUUAAUUUUCUACCCCCAGAGAUAAAUGUUUGUUUAUAUCACUGUCUAGCUGUUUCAAAAUUUAGGUCCCUUGGUCUGUACAAAUAAUAGCAAUGUAAAAAUGGUUUCAACAGAGGAUUGAGCAUCA

This is one part of the list.

This test has as its target T1, UNK ZnF1-6 (called full-length). As to the kind of experiment: nsRBNS (natural sequence RNA bind-n-seq); RBNS binding buffer (assumed for nsRBNS): 25 mM Tris pH 7.5, 150 mM KCl, 3 mM MgCl2, 0.01% Triton X-100, 500 ug/ml BSA, 20 U/ml SUPERase-In, 4 C; UNK is unkempt and MSI1 is Musashi-1; names of the RNAs are library labels; protein concentration not given here; high values mean tight binding.
On to B1, for which the binding signal amounted to 0.682 enrichment R.

B2 registered a binding signal of 0.961 enrichment R.

B3 came in with a binding signal of 4.25 enrichment R.

Regarding B4, the binding signal is 0.96 enrichment R.

In turn, B5 gave a binding signal of 0.547 enrichment R.

B6: the binding signal is 3.5 enrichment R.

On to B7, for which the binding signal was determined as 1.83 enrichment R.

Take B8: the binding signal came to 5.74 enrichment R.

Consider B9, for which the binding signal was 29 enrichment R.

Molecule B10 gave a binding signal of 0.514 enrichment R.

B11 showed a binding signal of 4.95 enrichment R.

Turning to B12, the binding signal is 0.684 enrichment R.

B13 yielded a binding signal of 0.497 enrichment R.

In the case of B14, the binding signal worked out at 0.848 enrichment R.

B15 gave a binding signal of 2.8 enrichment R.

Consider B16, for which the binding signal amounted to 4.43 enrichment R.

In turn, B17 registered a binding signal of 0.706 enrichment R.

In turn, B18 came in with a binding signal of 0.384 enrichment R.

The molecule B19 yielded a binding signal of 24.7 enrichment R.

B20 yielded a binding signal of 1.94 enrichment R.

Turning to B21, the binding signal was determined as 1.04 enrichment R.

Molecule B22 returned a binding signal of 119 enrichment R.
